Data published in the RNAGym collection of RNA variant scans (doi:10.1073/pnas.2313332121).
This sample is rich in variants without activity.

B1: TPR 5TU (parent)
chain: GGAUCUUCUCGAUCUAACAAAAAAGACAAAUCUGCCACAAAGCUUGAGAGCAUCUUCGGAUGCAGAGGCGGCAGCCUUCGGUGGCGCGAUAGCGCCAACGUUCUCAACUAUGACACGCAAAACGCGUGCUCCGUUGAAUGGAGUUUAUCAUG

Variants of: B1
Test: polymerase ribozyme fitness, log enrichment relative to wild type (log ratio); higher = more active; in vitro selection for triplet polymerase activity
How it was run: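 PCR was used to build mutant libraries for each subunit of a heterodimeric triplet polymerase ribozyme, which were then transcribed. A single in vitro selection round, in triplicate, used a frozen incubation at −7 °C and recovered extended constructs by gel excision, streptavidin beads and RT-PCR. Fitness is the logarithm of genotype enrichment relative to wild-type enrichment, averaged over replicates with inverse-variance weights. The logarithm is base 2, and after Illumina sequencing only genotypes with ≥10 input reads and ≥1 read per output were kept.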

Variant	polymerase ribozyme fitness (log ratio)
U6A C14A A40U G84U C95U A115C U139C G141U	≤ -4.2
U6C C8A U31A C95U A107U U127G U134G	≤ -4.2
U6C C87U C93U U111G A115G C132G G141C	≤ -4.2
U6A A12C A22C C36A G48A G50C A91G C96U C99G G117C C149U	≤ -4.2
C5G G100A C116U	≤ -4.2
U6C A20U U53G G59U C69U C118A	≤ -4.2
C5U A24G C38U G58C G59C C69U C85A C129A U135G G143C U145A U148A	≤ -4.2
U6A A30U G42A G48C U56A G83U C105U G136U	≤ -4.2
U6A G59A C69G C75U A98U C99A	≤ -4.2
U6A A41G U44G C75A G92A U102A U148C	≤ -4.2
U6C A37C A41C A91U A142C	≤ -4.2
C5U A41C U44A A49C U55A A64U C93G C95U C118U G126A	≤ -4.2
C5G U7C C8U C38G G48A A60C C75A A120G U135A U146A	≤ -4.2
U6A U15C A23U G50C G59A A142C	≤ -4.2
U6C C10U A20U G84A C85A	≤ -4.2
U6C A16G C35U A91U	≤ -4.2
U6C C38A A47U C95U G143C	≤ -4.2
C5U A41C U53A U55A U56A G94U A122G	≤ -4.2
C5G A49C C54U G84U A106C A119U G126U	≤ -4.2
U6A A12G A17C G25C U55G A89G	-3.61
C5G U55G G88C U109A A121C	≤ -4.2

Variant	polymerase ribozyme fitness (log ratio)
U6A A12U G42C U82A G84A A119G G143A	≤ -4.2
C5G G94A C105G C116A G141C	≤ -4.2
U6A U13A A40C C85A C93G G94C C123U	≤ -4.2
U6A U55G U139A	≤ -4.2
U6C C85G	-2.95
C5G C10U A12U U31A C35U A41C C75A C108U A110G C114U C125A U135G	≤ -4.2
C5G C14A C18G A49C U77G G92A C105G G143A	≤ -4.2
C5G C8U A12U C27G G59C A66G U78C U101A C125G C131A U139C	-3.97
U6A C14U U82C G86A	-4.09
C5U U45A U56A G80C U102G A119U	≤ -4.2
C5U C14G G34U G86U A98G C132U	≤ -4.2
U6C C8U G11A A20U G48U G83A C99U U135A G143U	≤ -4.2
U6A A39G C85G A113G C118G U130G	≤ -4.2
C5U A21U A26U A29C U82G A89C C95G C99U A138G	≤ -4.2
C5U C10A A22C A29C C35U A40C C87G C95A	≤ -4.2
C5G U90G C93A C116G A142C	≤ -4.2
C5G U31G A40U A47U G68A A73G C96A C99U U111A	≤ -4.2
U6C C27A A40G A66U C95A	≤ -4.2
U6A U9C C38U G86C U102G	≤ -4.2
U6A A17G A22C C32G G59A G67U C129U G136A G143A	≤ -4.2
C5U A29G U45A G50A G86A A110G A119U	≤ -4.2

Variant	polymerase ribozyme fitness (log ratio)
C5U C32A C116U G124C	≤ -4.2
C5G C14A G42U U44A G83C C105G A106C U109G C132G	≤ -4.2
U6A A30G G46A A47G A60G A66G G86U C125U	≤ -4.2
U6A G86U G94A A98G	≤ -4.2
U6C C18G C93A A110U	≤ -4.2
U6A A16G C108G C114A	≤ -4.2
U6A A12G A28U U31C C36U C76G C95U	≤ -4.2
C5U A24U C27G U53G C95U G100A	≤ -4.2
C5G C14G C54A U61G G68C G83U A115G U127A A138U	≤ -4.2
U6A A20U C27U G46A C87A	≤ -4.2
C5G C10G G92A C123U A138C G143A	≤ -4.2
C5G U44C U53A C63A G71A U90C G94U G152U	≤ -4.2
U6C A12G C43U A52G A73C A91U G141C	≤ -4.2
C5U A24U C27G G58C C76U G80A C85U	≤ -4.2
C5G U45A A73G G94A C105G C118G U135A A150G	≤ -4.2
C5G C8G C18U G68A A98U U104C U148G	≤ -4.2
C5G G141C	-0.606
U6C C36U U61A A98U G133U G140A	≤ -4.2
U6A A91C	≤ -4.2
C5G G34C C76A C85U C118U G140A	≤ -4.2
C5G C8U A30U C75G U90A C96U A115G	≤ -4.2

Variant	polymerase ribozyme fitness (log ratio)
C5G C105U	-0.0507
U6A A23U G59A U78G G81C C93U A97G U102A A115U G152U	≤ -4.2
C5G C27U A29C C76A G94A C96G A110G U111G G136U	≤ -4.2
C5G U15A U45G U82C G92A A150U	≤ -4.2
C5U U6C G11C G68C U90C C96U C99U C114G A120C A121C	≤ -4.2
U6A U9A C87A A107G U144A	≤ -4.2
C5G G50C G58A C96U G124U	≤ -4.2
U6A A23U C38U C85G C95G C99G	≤ -4.2
U6A C27G C36G U53G C93A U104G	≤ -4.2
C5U A29G G94U G124A	≤ -4.2
U6A G70U U78A C87U	≤ -4.2
U6A U55G U61A C131U C132G	≤ -4.2
C5U A17G U55G G62C G84U	≤ -4.2
U6C A21U A26U U44A A49C C95U A98U C123A G141C	≤ -4.2
U6A C32G A52U G86U U102G	≤ -4.2
U6A C18A A21U U56G G68A A91U G128C U139A G143A	≤ -4.2
C5U G11A U55A G81A C87A C116G U139A A150G	≤ -4.2
U6A U13A C35G A110G A142G	-3.55
C5U C87A G100C C131G	≤ -4.2
U6A C93G	-3.92
